Laboratory results published in the supplement of paper PMC8728848.
Some of the results follow.

Legend:
Test in all cases: glycan array binding signal (z-score within array); higher = stronger binding
Conditions in all cases: glycan notation: IUPAC condensed, linker removed
[1] = target: Neu5Ac(a2-6)Gal(b1-4)GlcNAc(b1-2)Man(a1-3)[GlcNAc(b1-4)][Neu5Ac(a2-6)Gal(b1-4)GlcNAc(b1-2)Man(a1-6)]Man(b1-4)GlcNAc(b1-4)GlcNAc
In short: (§1)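 Columns mapping to the same glycan were averaged after glycan names were converted to IUPAC-condensed notation. The data come from 3228 arrays in the Consortium for Functional Glycomics database, limited to those with an available protein sequence. Binding is reported as a within-array Z-score averaged across arrays of one protein sequence and across linkers.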

[2] = target: Neu5Ac(a2-6)Gal(b1-4)GlcNAc(b1-2)Man(a1-3)[Man(a1-6)]Man(b1-4)GlcNAc(b1-4)GlcNAc
In short: as §1

[3] = target: Neu5Ac(a2-6)Gal(b1-4)GlcNAc(b1-2)Man(a1-3)[Neu5Ac(a2-3)Gal(b1-4)GlcNAc(b1-2)Man(a1-6)]Man(b1-4)GlcNAc(b1-4)GlcNAc
In short: as §1

[4] = target: Neu5Ac(a2-6)Gal(b1-4)GlcNAc(b1-2)Man(a1-3)[Neu5Ac(a2-6)Gal(b1-4)GlcNAc(b1-2)Man(a1-6)]Man(b1-4)GlcNAc(b1-4)GlcNAc
In short: as §1

[5] = target: Neu5Ac(a2-6)Gal(b1-4)GlcNAc(b1-2)Man(a1-3)[Neu5Ac(a2-6)Gal(b1-4)GlcNAc(b1-2)Man(a1-6)]Man(b1-4)GlcNAc(b1-4)[Fuc(a1-6)]GlcNAc
In short: as §1

[6] = target: Neu5Ac(a2-6)Gal(b1-4)GlcNAc(b1-2)Man(a1-6)Man(b1-4)GlcNAc(b1-4)GlcNAc
In short: as §1

[7] = target: Neu5Ac(a2-6)Gal(b1-4)GlcNAc(b1-2)Man(a1-6)[Gal(b1-4)GlcNAc(b1-2)Man(a1-3)]Man(b1-4)GlcNAc(b1-4)GlcNAc
In short: as §1

[8] = target: Neu5Ac(a2-6)Gal(b1-4)GlcNAc(b1-2)Man(a1-6)[GlcNAc(b1-2)Man(a1-3)]Man(b1-4)GlcNAc(b1-4)GlcNAc
In short: as §1

[9] = target: Neu5Ac(a2-6)Gal(b1-4)GlcNAc(b1-2)Man(a1-6)[Man(a1-3)]Man(b1-4)GlcNAc(b1-4)GlcNAc
In short: as §1

[10] = target: Neu5Ac(a2-6)Gal(b1-4)GlcNAc(b1-2)[Neu5Ac(a2-6)Gal(b1-4)GlcNAc(b1-4)]Man(a1-3)[GlcNAc(b1-4)][Neu5Ac(a2-6)Gal(b1-4)GlcNAc(b1-2)[Neu5Ac(a2-6)Gal(b1-4)GlcNAc(b1-6)]Man(a1-6)]Man(b1-4)GlcNAc(b1-4)GlcNAc
In short: as §1

[11] = target: Neu5Ac(a2-6)Gal(b1-4)GlcNAc(b1-2)[Neu5Ac(a2-6)Gal(b1-4)GlcNAc(b1-4)]Man(a1-3)[GlcNAc(b1-4)][Neu5Ac(a2-6)Gal(b1-4)GlcNAc(b1-4)Man(a1-6)]Man(b1-4)GlcNAc(b1-4)GlcNAc
In short: as §1

[12] = target: Neu5Ac(a2-6)Gal(b1-4)GlcNAc(b1-2)[Neu5Ac(a2-6)Gal(b1-4)GlcNAc(b1-6)]Man(a1-6)[Neu5Ac(a2-6)Gal(b1-4)GlcNAc(b1-2)Man(a1-3)][GlcNAc(b1-4)]Man(b1-4)GlcNAc(b1-4)GlcNAc
In short: as §1

[13] = target: Neu5Ac(a2-6)Gal(b1-4)GlcNAc(b1-3)Gal(b1-3)GlcNAc
In short: as §1

[14] = target: Neu5Ac(a2-6)Gal(b1-4)GlcNAc(b1-3)Gal(b1-4)GlcNAc
In short: as §1

[15] = target: Neu5Ac(a2-6)Gal(b1-4)GlcNAc(b1-3)Gal(b1-4)GlcNAc(b1-2)Man(a1-3)[Neu5Ac(a2-6)Gal(b1-4)GlcNAc(b1-3)Gal(b1-4)GlcNAc(b1-2)Man(a1-6)]GalNAc
In short: as §1

[16] = target: Neu5Ac(a2-6)Gal(b1-4)GlcNAc(b1-3)Gal(b1-4)GlcNAc(b1-3)Gal(b1-4)GlcNAc
In short: as §1

[17] = target: Neu5Ac(a2-6)Gal(b1-4)GlcNAc(b1-3)Gal(b1-4)GlcNAc(b1-3)Gal(b1-4)GlcNAc(b1-2)Man(a1-3)[Neu5Ac(a2-6)Gal(b1-4)GlcNAc(b1-3)Gal(b1-4)GlcNAc(b1-3)Gal(b1-4)GlcNAc(b1-2)Man(a1-6)]GalNAc
In short: as §1

[18] = target: Neu5Ac(a2-6)Gal(b1-4)GlcNAc(b1-3)Gal(b1-4)GlcNAc(b1-3)GalNAc
In short: as §1

[19] = target: Neu5Ac(a2-6)Gal(b1-4)GlcNAc(b1-3)Gal(b1-4)GlcNAc(b1-3)[Neu5Ac(a2-6)Gal(b1-4)GlcNAc(b1-3)Gal(b1-4)GlcNAc(b1-6)]GalNAc
In short: as §1

[20] = target: Neu5Ac(a2-6)Gal(b1-4)GlcNAc(b1-3)Gal(b1-4)GlcNAc(b1-6)[Gal(b1-3)]GalNAc
In short: as §1

[21] = target: Neu5Ac(a2-6)Gal(b1-4)GlcNAc(b1-3)Gal(b1-4)[Fuc(a1-3)]GlcNAc(b1-3)Gal(b1-4)[Fuc(a1-3)]GlcNAc
In short: as §1

[22] = target: Neu5Ac(a2-6)Gal(b1-4)GlcNAc(b1-3)GalNAc
In short: as §1

[23] = target: Neu5Ac(a2-6)Gal(b1-4)GlcNAc(b1-3)[Neu5Ac(a2-6)Gal(b1-4)GlcNAc(b1-6)]GalNAc
In short: as §1

[24] = target: Neu5Ac(a2-6)Gal(b1-4)GlcNAc(b1-6)GalNAc
In short: as §1

[25] = target: Neu5Ac(a2-6)Gal(b1-4)GlcNAc(b1-6)[Gal(b1-3)GlcNAc(b1-3)]Gal(b1-4)Glc
In short: as §1

[26] = target: Neu5Ac(a2-6)Gal(b1-4)GlcNAc(b1-6)[Gal(b1-3)]GalNAc
In short: as §1

[27] = target: Neu5Ac(a2-6)Gal(b1-4)GlcNAc6S
In short: as §1

Neu5Ac(a2-6)GalNAc = target: Neu5Ac(a2-6)GalNAc
In short: as §1

[28] = target: Neu5Ac(a2-6)GalNAc(b1-4)GlcNAc
In short: as §1

[29] = target: Neu5Ac(a2-6)GalNAc(b1-4)GlcNAc6S
In short: as §1

[30] = target: Neu5Ac(a2-6)GlcNAc(b1-4)GlcNAc
In short: as §1

[31] = target: Neu5Ac(a2-6)GlcNAc(b1-4)GlcNAc(b1-4)GlcNAc
In short: as §1

Neu5Ac(a2-8)Neu5Ac = target: Neu5Ac(a2-8)Neu5Ac
In short: as §1

[32] = target: Neu5Ac(a2-8)Neu5Ac(a2-3)Gal(b1-3)GalNAc(b1-4)[Neu5Ac(a2-3)]Gal(b1-4)Glc
In short: as §1

[33] = target: Neu5Ac(a2-8)Neu5Ac(a2-3)Gal(b1-3)GalNAc(b1-4)[Neu5Ac(a2-8)Neu5Ac(a2-3)]Gal(b1-4)Glc
In short: as §1

[34] = target: Neu5Ac(a2-8)Neu5Ac(a2-3)Gal(b1-4)Glc
In short: as §1

[35] = target: Neu5Ac(a2-8)Neu5Ac(a2-3)Gal(b1-4)GlcNAc
In short: as §1

[36] = target: Neu5Ac(a2-8)Neu5Ac(a2-3)[Gal(b1-3)GalNAc(b1-4)]Gal(b1-4)Glc
In short: as §1

[37] = target: Neu5Ac(a2-8)Neu5Ac(a2-3)[GalNAc(b1-4)]Gal(b1-4)Glc
In short: as §1

[38] = target: Neu5Ac(a2-8)Neu5Ac(a2-8)Neu5Ac
In short: as §1

[39] = target: Neu5Ac(a2-8)Neu5Ac(a2-8)Neu5Ac(a2-3)Gal(b1-4)Glc
In short: as §1

[40] = target: Neu5Ac(a2-8)Neu5Ac(a2-8)Neu5Ac(a2-3)[Gal(b1-3)GalNAc(b1-4)]Gal(b1-4)Glc
In short: as §1

[41] = target: Neu5Ac(a2-8)Neu5Ac(a2-8)Neu5Ac(a2-3)[GalNAc(b1-4)]Gal(b1-4)Glc
In short: as §1

[42] = target: Neu5Ac(a2-8)Neu5Ac(a2-8)Neu5Ac(a2-8)Neu5Ac(a2-3)[GalNAc(b1-4)]Gal(b1-4)Glc
In short: as §1

[43] = target: Neu5Ac(a2-8)Neu5Gc(a2-3)Gal(b1-4)GlcNAc
In short: as §1

[44] = target: Neu5Ac(b2-6)Gal(b1-4)GlcNAc
In short: as §1

Neu5Ac(b2-6)GalNAc = target: Neu5Ac(b2-6)GalNAc
In short: as §1

[45] = target: Neu5Ac9Ac(a2-3)Gal(b1-3)GlcNAc
In short: as §1

[46] = target: Neu5Ac9Ac(a2-3)Gal(b1-4)GlcNAc
In short: as §1

[47] = target: Neu5Ac9Ac(a2-6)Gal(b1-4)GlcNAc
In short: as §1

[48] = target: Neu5Gc(a2-3)Gal(b1-3)GlcNAc
In short: as §1

[49] = target: Neu5Gc(a2-3)Gal(b1-3)[Fuc(a1-4)]GlcNAc
In short: as §1

Neu5Gc(a2-3)Gal(b1-4)Glc = target: Neu5Gc(a2-3)Gal(b1-4)Glc
In short: as §1

[50] = target: Neu5Gc(a2-3)Gal(b1-4)GlcNAc
In short: as §1

[51] = target: Neu5Gc(a2-3)Gal(b1-4)GlcNAc(b1-3)Gal(b1-4)GlcNAc(b1-2)Man(a1-3)[Neu5Gc(a2-3)Gal(b1-4)GlcNAc(b1-3)Gal(b1-4)GlcNAc(b1-2)Man(a1-6)]Man(b1-4)GlcNAc(b1-4)GlcNAc
In short: as §1

[52] = target: Neu5Gc(a2-3)Gal(b1-4)[Fuc(a1-3)]GlcNAc
In short: as §1

[53] = target: Neu5Gc(a2-6)Gal(b1-4)GlcNAc
In short: as §1

Neu5Gc(a2-6)GalNAc = target: Neu5Gc(a2-6)GalNAc
In short: as §1

[54] = target: Neu5Gc(a2-8)Neu5Ac(a2-3)Gal(b1-4)GlcNAc
In short: as §1

[55] = target: Neu5Gc(a2-8)Neu5Gc(a2-3)Gal(b1-4)GlcNAc
In short: as §1

[56] = target: Neu5Gc(a2-8)Neu5Gc(a2-3)Gal(b1-4)GlcNAc(b1-3)Gal(b1-4)GlcNAc
In short: as §1

[57] = target: Neu5Gc(a2-8)Neu5Gc(a2-6)Gal(b1-4)GlcNAc
In short: as §1

[58] = target: Neu5Gc(b2-6)Gal(b1-4)GlcNAc
In short: as §1

Measured: glycan array binding signal (z-score)

B1: LBL-152 (Laetiporus bicolor), B0D650 (protein)
chain: MSNEYNPPLGIAFRLCGLASDRVLFSRVSPSPEVFHHPKSEVYPDQWFVAIPGSGQNAGCYAIKSKNTGKVLFSRMSPDPRVGHIDGDGKYPDNWFKFEAGSGKYAGYFRLRAVASDTVLVSRTSTGTDTQVINYPATSAKYDDQYFTILFDHHHHHH
-0.153: [4] | [21] | [27] | [30] | [46] | Neu5Gc(a2-3)Gal(b1-4)Glc | Neu5Gc(a2-6)GalNAc
-0.165: Neu5Ac(b2-6)GalNAc
-0.154: [14] | [20] | [23] | [25] | [32] | [43] | [58]
-0.127: [51]
-0.152: [9] | [18] | [22] | [38]
-0.16: [28] | [53]
-0.159: [7] | [41] | [47] | [48]
-0.161: [1] | [31] | [44] | [55]
-0.145: [5] | Neu5Ac(a2-8)Neu5Ac
-0.158: [11] | [26]
-0.151: [19] | [24] | [29] | [42] | [52]
-0.134: [17]
-0.129: [15]
-0.157: [2] | [8] | Neu5Ac(a2-6)GalNAc | [34] | [36] | [56]
-0.146: [16] | [49]
-0.156: [3]
-0.163: [57]
-0.162: [50]
-0.144: [39]
-0.143: [33]
-0.155: all other assays above
